# From PubChem BioAssay AID1963576 (National Center for Advancing Translational Sciences (NCATS), 2024)
# Among all 46,000 compounds or so, about 60 (0.1%) were called active. Another 3% or so got no clear call; they are omitted. Calls come from the whole dose curve; as a rule, active = well fitted inhibition curve with a large enough effect; inconclusive = small, poorly fitted or top-dose-only effect; inactive = no such curve, though single readings can be large or run the other way. This is one part of the list.
# Assay: Primary qHTS assay for Inhibitors of ovarian cancer metastasis using an organotypic tumor microenvironment (TME) model.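 For Potency: count of GFP cancer cells still attached after washing and fixation.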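 For activity change, negative = inhibition: plate controls were DMSO wells for no effect and tomatine positive control wells for full effect.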 Note: nearly all actives have a fitted effect of over 65% in size.
# Conditions: SKOV3ip1-GFP adhesion/invasion on 3D omental model, fluorescence; series mostly up to 45.8 µM; activity change, negative = inhibition: at the top concentration
# Summary of the method: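 Primary human omental fibroblast/mesothelial 3D culture pre-formed 48 h. SKOV3ip1-GFP cells added with compounds (0.36-46 umol/L), incubated 2 h RT/16 h 37 C, fixed; GFP cells quantified at 488/509 nm.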
# Potency is the fitted concentration of half-maximal effect.
SMILES,outcome,"activity change, negative = inhibition",Potency
CCc1ccc(NC(=O)CC2C(=O)NCCN2C(=O)c2ccccc2OC)cc1 (stereo not given),inactive,,
CCOc1ccc(S(=O)(=O)NCCc2csc3nc(-c4ccc(OC)c(OC)c4)nn23)cc1,,inactive: 12%,
COc1cn(CC(=O)Nc2c(C)cc(C)cc2C)c(CN2CCCCC2)cc1=O,inactive,,
CC(C)c1ccc(NC(=O)c2ccc3oc(=O)c(S(=O)(=O)c4ccc(F)cc4)cc3c2)cc1,,inactive: -17%,
CCOCCc1nn2c(=O)cc(COC(=O)COc3ccc(C)c(C)c3)nc2s1,,inactive: 5.04%,
COc1ccc(NC(=O)Cn2ncc3c(C)n(Cc4cccc(Cl)c4)c(C)c3c2=O)cc1,,inactive: -12.6%,
Clc1cccc(CSc2nc(NCCc3ccccc3)c3ccccc3n2)c1,inactive,,
COc1ccccc1CNCc1ccc(C(=O)O)s1,inactive,,
CC(C)c1ccc(NC(=O)CSc2ncnc3c2sc2ccccc23)cc1,,inactive: -9.55%,
CC(C)CCOc1ccc(Cn2c(=O)sc3ccccc32)cc1,,inactive: 0.643%,
CCOc1ccc(CCNC(=O)CSc2nc3ccccc3nc2Cc2ccc(C)cc2)cc1OCC,,inactive: 1.6%,
COc1ccc(-c2nc3sc(CCNC(=O)Cc4ccc(Cl)cc4)c(C)n3n2)cc1,inactive,,
COc1ccc(C(=O)Nc2ccc(N3CCN(c4ccccc4)CC3)c(C(=O)O)c2)cc1,,inactive: -1.32%,
COc1c(C)cccc1C(=O)Nc1ccc(Cl)c(-c2nc3cc(C)ccc3o2)c1,,inactive: -7.59%,
CCOc1ccc(CCNC(=O)C(CC(C)C)N2Cc3ccccc3C2=O)cc1OCC (stereo not given),inactive,,
CCN(CC)c1ccc(C(=O)NCc2ccc3c(c2)CCN3C(=O)c2cccc(C)c2)cc1,,inactive: -8.76%,
CCOc1ccc(C2C(=O)N(C3CCCCCC3)CC(=O)N2Cc2ccc(F)cc2)cc1OC (stereo not given),,inactive: -5.35%,
CCN(CC)c1ccc(NC(=O)CN(C)S(=O)(=O)c2cccc3nsnc23)c(C)c1,,inactive: -17%,
Nc1nnc(SCC(=O)Nc2cccc(F)c2)s1,,inactive: 3.3%,
Cc1ccc(NC(=O)C2CCCN(c3cnccn3)C2)cc1Cl (stereo not given),,inactive: 16.5%,
Cc1ccc(CS(=O)Cc2ccc(C(=O)NCc3ccccc3Cl)o2)cc1 (stereo not given),inactive,,
CCOc1ccc(NC(=O)CCc2nc3cccnc3n2Cc2ccc(OC)cc2)cc1,,inactive: 3.11%,
O=C(O)COCCN1CCN(C(c2ccccc2)c2ccc(Cl)cc2)CC1 (stereo not given),,inactive: 0.747%,
Cc1ccccc1CN1C(=O)c2ccccc2Sc2ccc(C(=O)O)cc21,inactive,,

SMILES,outcome,"activity change, negative = inhibition",Potency
CC(C)c1ccc(NC(=O)C2CCN(S(=O)(=O)c3ccc(Br)s3)CC2)cc1,,inactive: -2.59%,
Cc1ccc(S(=O)(=O)c2nnn3c2nc(NCc2ccccc2)c2sccc23)cc1,,inactive: 1.32%,
O=S(=O)(c1cc(Br)c(Br)s1)N1CCN(c2ccccc2)CC1,,inactive: -24.1%,
COc1ccccc1C(=O)Nc1cccc(OCc2cc(=O)n3c(C)csc3n2)c1,,inactive: -4.31%,
Clc1ccc(Nc2nc(-c3ccccc3)c3ccccc3n2)c(Cl)c1,,inactive: 2.6%,
CC(C)Cc1nn2c(=O)cc(COC(=O)c3ccccc3NC(=O)c3cccs3)nc2s1,,inactive: -44.8%,
CCOc1ccccc1NC(=O)C(=O)c1cc(C)n(-c2cccc(C)c2C)c1C,,inactive: -10.6%,
CCOc1ccc(CCNC(=O)c2cc3cc4cc(OC)ccc4nc3s2)cc1OCC,inactive,,
CCc1nn2c(=O)cc(COC(=O)c3cccc(NC(=O)COc4ccccc4)c3)nc2s1,,inactive: -18.8%,
COc1ccc(-c2noc(N3CCN(c4ccc(Cl)cc4)CC3)n2)cc1OC,inactive,,
COc1ccc2c(c1)CCc1c(C(=O)Nc3cnn(Cc4ccc(Cl)cc4Cl)c3)noc1-2,,inactive: -12.9%,
COc1cccc(NC(=O)CCSc2nc(-c3ccco3)cc(C(F)(F)F)n2)c1,,inactive: -3.58%,
COc1ccc(CNC(=O)C2CCN(S(=O)(=O)c3ccc4nc5c(c(C(=O)O)c4c3)CCCC5)CC2)cc1,inactive,,
CCc1cccc(C)c1NC(=O)C1CCN(c2nnc(C)c3c(C)n(-c4ccccc4)nc23)CC1,inactive,,
Cc1cc(C)cc(NC(=O)Cn2cc(C(=O)c3ccncc3)c(=O)c3cc(C)c(C)cc32)c1,inactive,,
Cc1cccc(NC(=O)C2CCN(S(=O)(=O)c3ccc4[nH]c5c(c4c3)CCCCC5)CC2)c1,,inactive: -7.18%,
Cc1ccccc1NC(=O)c1cc2sccc2n1Cc1ccc(F)cc1,,inactive: 7.08%,
CN(c1ccccc1)S(=O)(=O)c1nnc(NC(=O)c2ccco2)s1,,inactive: 3.68%,
CCCCCn1c(=O)[nH]c2cc(C(=O)N3CCN(c4cccc(Cl)c4)CC3)ccc2c1=O,,inactive: 6.15%,
COc1ccc(OC)c(CNC(=O)c2cc(S(=O)(=O)N3CCC(C)CC3)cn2C)c1,inactive,,
COc1ccc(NC(=O)CCc2nc3c(C)nn(-c4ccc(C)cc4)c3n(C)c2=O)c(OC)c1,,inactive: 3.33%,
CSc1nn(Cc2ccccc2C)c(NC(C)=O)c1S(=O)(=O)c1ccc(C)cc1,,inactive: 8.6%,
CCOC(=O)CCn1c(=O)c2cccn2c2cccnc21,,inactive: 0.0409%,
COc1cc2oc(=O)c(CC(=O)NCCc3ccccc3)c(C)c2cc1Cl,inactive,,

SMILES,outcome,"activity change, negative = inhibition",Potency
Cc1ccc(NC(=O)/C(C#N)=C\c2ccc(-c3ccc(Cl)cc3)o2)c(C)c1,,inactive: -5.95%,
COCCNC(=O)CCCn1c(SCC(=O)c2ccc(F)cc2)nc2c(sc3ccccc32)c1=O,,inactive: -10.2%,
O=C(CCS(=O)(=O)c1nc(-c2cccs2)cc(C(F)(F)F)n1)Nc1ccc(Br)cc1,,,active: 3.16 µM
Cc1ccc2nc(-c3ccsc3)c(Nc3ccc(C(C)C)cc3)n2c1,,inactive: -3.37%,
COc1ccccc1C(=O)Nc1ccc2nc(SCC(=O)N3CCCC3)sc2c1,,inactive: -5.49%,
N[C@@H]1CONC1=O,,inactive: 11.1%,
Cc1cc2cc(CCNS(=O)(=O)c3ccc(Br)cc3)c(=O)[nH]c2cc1C,,inactive: -4.24%,
COCCN1Cc2cccc(C(=O)Nc3ccc(C(=O)OC)cc3)c2C1=O,,inactive: 8%,
CCOc1ccc(-c2c(C)nn3c(C)c(C(=O)Nc4cccc(Cl)c4C)cnc23)cc1OCC,inactive,,
CCc1ccccc1NC(=O)C(C)n1c(=O)cc(C)c2c(C)nn(-c3ccccc3)c21 (stereo not given),inactive,,
COC(=O)c1ccc(CSc2nc3c([nH]c4ccccc43)c(=O)n2-c2cccc(Cl)c2)o1,inactive,,
CCOC(=O)C1CCCN(C(=O)Cn2ncc3c4ccccc4n(Cc4ccccc4)c3c2=O)C1 (stereo not given),,inactive: -6.69%,
CCc1ccccc1NC(=O)CN1C(=O)CCSc2ccc(S(=O)(=O)N3CCCC3)cc21,inactive,,
O=C(OCC1CCCO1)c1ccc2c(c1)N(Cc1ccccc1)C(=O)c1ccccc1S2(=O)=O (stereo not given),,inactive: -9.43%,
CCN(CC)S(=O)(=O)c1ccc2c(c1)nc(CN(C)C(=O)Nc1ccc(C)c(F)c1)n2C,inactive,,
Cc1ccc(NC(=O)c2nc(S(C)(=O)=O)ncc2N(Cc2ccco2)Cc2cccs2)cc1C,,inactive: -6.8%,
COc1ccc(NC(=O)c2sc3nc(C(F)(F)F)cc(C)c3c2N)cc1OC,,inactive: 0.69%,
COc1ccc(N2CCN(C(=O)COCc3cc(-c4ccc5c(c4)OCO5)on3)CC2)cc1,,inactive: 2.51%,
COc1ccccc1NC(=O)c1cc2c(C)nn(-c3ccccc3)c2s1,,inactive: -9.12%,
CCn1nc(-c2ccccc2)c(-c2ccccc2)c(C(=O)Nc2ccc(NC(C)=O)cc2)c1=O,inactive,,
COCCCNC(=O)CSc1nc2cc3c(cc2c(=O)n1CCCC(=O)NCc1ccc2c(c1)OCO2)OCO3,,inactive: 9.46%,
Cc1ccccc1OCCSc1nc2ccc(NC(=O)c3cccs3)cc2s1,,inactive: -8.39%,
Cn1c(=O)cc(SCC(=O)N2CCN(c3ccccc3F)CC2)c2ccc(Cl)cc21,,inactive: 0.939%,
O=C(NC1CCN(Cc2ccccc2)CC1)c1ccc(Cn2c(=O)c3ccccc3n(Cc3ccc(F)cc3)c2=O)cc1,,inactive: 2.51%,

SMILES,outcome,"activity change, negative = inhibition",Potency
Cc1cc(C)cc(Oc2nc3ccccn3c(=O)c2/C=C(\C#N)c2nc3ccccc3s2)c1,,inactive: -5.71%,
Cc1ccc(-c2csc(=Nc3ccccc3)n2Cc2ccc3c(c2)OCO3)cc1,,inactive: -17.8%,
COc1ccc(OC)c(NC(=O)Nc2c(C)n(C)n(-c3ccccc3)c2=O)c1,,inactive: -5.71%,
Cc1ccc(Cn2ccnc2SCC(=O)Nc2nnc(C)s2)cc1,,inactive: 6.76%,
O=C(Cc1ccccc1)Nc1sc2c(c1C(=O)Nc1ccc(Br)cc1)CCCC2,,inactive: -2.93%,
COc1ccc(CNC(=O)c2cc3sccc3n2Cc2ccc(C)cc2)cc1,,inactive: 2.77%,
CC1(c2ccc(Cl)cc2)CC(C)(C)N(C(=O)c2cccc(F)c2)c2ccccc21 (stereo not given),,inactive: 6.1%,
COCCCn1c(-c2ccc(S(=O)(=O)N3CCOCC3)cc2)csc1=Nc1ccccc1,inactive,,
CN1CC[C@@H](c2c(O)cc(O)c3c(=O)cc(-c4ccccc4Cl)oc23)[C@@H](O)C1,,inactive: 16.9%,
COc1ccc(C(=O)Oc2c(Sc3ccc(C)cc3)c(C)nn2C(C)(C)C)cc1OC,,inactive: -4.65%,
COc1ccccc1NC(=O)Cn1c(=O)n(CC(=O)NCc2ccccc2Cl)c(=O)c2sccc21,,inactive: 8.12%,
O=C(c1ccc2c(c1)N(Cc1ccc(Cl)cc1)C(=O)c1ccccc1S2=O)N1CCCCC1 (stereo not given),inactive,,
Cc1ccc2c(CNCc3ccc(C)o3)c(C(=O)O)n(Cc3ccc(F)cc3)c2c1,,inactive: -7.66%,
CCOc1ccc(CNC(=O)c2cc(-c3ccc(Cl)s3)nc3ccccc23)cc1,,inactive: -9.03%,
CC(=O)c1ccc(NS(=O)(=O)c2ccc(-n3cccn3)cc2)cc1,,inactive: 33.8%,
Cc1ccccc1NC(=O)CSc1nc(-c2ccco2)nc2cc(=O)[nH]n12,,inactive: 8.92%,
Cc1ccc(C(=O)Oc2cc(-c3ccc4c(c3)OCO4)cc(=O)c3c(C)oc(C)c23)cc1,,inactive: -14.1%,
Cc1ccc(C(=O)NC2(C(F)(F)F)N=C(c3ccccc3)N(Cc3ccccc3)C2=O)cc1 (stereo not given),inactive,,
CCOc1ccc(NC(=O)Cn2c(=O)n(CCCS(=O)(=O)C3CCCCC3)c(=O)c3ccccc32)cc1,inactive,,
COc1ccc(CCNC(=O)CCCn2nc(C)c3sc4ccccc4c3c2=O)c(OC)c1,,inactive: 3.61%,
CCOc1ccc(-c2cc(CCCC(=O)NCCc3cc(OC)c(OC)c(OC)c3)no2)cc1,,inactive: -0.615%,
Cc1ccc(NC(=O)Cn2cc(C(=O)C3CCCCC3)c3ccccc32)cc1,,inactive: 3.47%,
CCOC(=O)C1CCN(C(c2ccc(C)cc2)c2c(O)cc(C)n(CCOC)c2=O)CC1 (stereo not given),,inactive: -9.21%,
